Results as given in ChEMBL document CHEMBL4888484, “Replenishing the malaria drug discovery pipeline: Screening and hit evaluation of the MMV Hit Generation Library 1 (HGL1) against asexual blood stage Plasmodium falciparum ,using a nano luciferase reporter read-out” (2022).
About 540 (0.36%) of roughly 150,000 compounds showed an effect of 50% or more. The list shows a part of the results.

The molecules below were run on Plasmodium falciparum (assay: Primary screen in NF54 nanoGlo assay, in single point, at 2uM, 72h; a lower Z score goes with more inhibition). Settings: timepoint 72 hour.
Type: functional, Erythrocyte
For `COc1ccc(C(=O)[C@@H]2CCCN2)cc1C`, the “% Inhibition” value was -33% and the Z score was 3.81. With `CCCCCN(C(=O)[C@H]1CC12CCNCC2)C(C)C` the “% Inhibition” value was -9% and the Z score was 1.27. For `Cc1oc(-c2cccc(Br)c2)nc1CN1C(=O)CN=C(c2ccccc2)c2ccccc21`, the “% Inhibition” value was -6% and the Z score was 0.85. For `CC1OCCC12CN(C1CCNC1=O)CCO2` (centres undefined), the “% Inhibition” value was 0% and the Z score was 0. `COc1ccnc(NCc2c(C)cc(C)[nH]c2=O)n1` was tested, and the “% Inhibition” value was -3% and the Z score was 0.43. In the case of `COc1ccc(-c2ccc3oc(=O)[nH]c3c2)cc1OC`, the “% Inhibition” value is reported as -5% and the Z score is reported as 1.08. In the case of `Cc1ccc2c(=O)n(C[C@H](C)N3CCCC3)cnc2c1C`, the “% Inhibition” value is reported as -13% and the Z score is reported as 1.2. With `CCn1nc(C)c(CN2CCc3ccnc(O)c3C2)c1C` the “% Inhibition” value was -12% and the Z score was 1.8. With `N#CCCCCn1c(-c2cnccn2)noc1=O` the “% Inhibition” value was -4% and the Z score was 0.69. In the case of `Cc1ccc(CN2CCN3CCN(C)C[C@H]3C2)c2cccnc12`, the “% Inhibition” value is reported as 9% and the Z score is reported as -2. `Cc1ccc(C)c(C(=O)[C@@H]2CCCN2)c1` was tested, and the “% Inhibition” value was -5% and the Z score was 0.67. With `Clc1cccc2ccc(CN3CC[C@H]4CC[C@@H](C3)N4)nc12` the “% Inhibition” value was 1% and the Z score was -0.07. In the case of `CCOc1ccc2ncc(C#N)c(N3CCC(C(=O)N4CCC5(CC4)OCCO5)CC3)c2c1`, the “% Inhibition” value is reported as -4% and the Z score is reported as 0.43. With `O=C(NCCc1cncnc1)NCc1cccs1` the “% Inhibition” value was -4% and the Z score was 0.58. `Cc1cc(N2CC3(CCC3)[C@H]2c2cccnc2)ncn1` was tested, and the “% Inhibition” value was 5% and the Z score was -0.74. In the case of `CCCc1nn(Cc2csc(-c3ccoc3)n2)c(=O)o1`, the “% Inhibition” value is reported as -9% and the Z score is reported as 1.17. For `C=C(C)CN(CC)C[C@H](O)c1ccccc1`, the “% Inhibition” value was -14% and the Z score was 1.73. With `Cc1c(C)[n+]([O-])c([C@@H](c2ccc(Br)cc2F)C2C(=O)NC(=O)NC2=O)n1CCO` the “% Inhibition” value was 1% and the Z score was -0.14. For `CC[C@H](NCCc1ccc2c(c1)OCO2)c1c(C)nn(C)c1C`, the “% Inhibition” value was -5% and the Z score was 0.96. With `CCCS(=O)(=O)Nc1ccc(=O)n2c1[C@@H]1C[C@@H](CN(C(=O)Nc3ccc(F)cc3)C1)C2` the “% Inhibition” value was 27% and the Z score was -3.06. With `COc1cccc(CC(=O)N2CCN(CCO)[C@@H]3CS(=O)(=O)C[C@@H]32)c1` the “% Inhibition” value was -3% and the Z score was 0.63. For `COc1ccc2c(c1)OC[C@@]1(C(=O)O)CN(CCC(F)(F)F)C[C@@H]21`, the “% Inhibition” value was 3% and the Z score was -0.33. For `O=C(O)C[C@H](CC(=O)NCC1CCN(C(=O)Oc2ccccc2)CC1)c1cccs1`, the “% Inhibition” value was -6% and the Z score was 0.93. With `O=C(COc1cccc(C(F)(F)F)c1)N1CC(O)C(N2CCCC2)C1` (centres undefined) the “% Inhibition” value was 10% and the Z score was -0.89. For `Cc1ccc(-c2nccn3cc(C(=O)N4CCC5(CC4)OCCO5)nc23)cc1`, the “% Inhibition” value was -3% and the Z score was 0.4. In the case of `CCN1CCCN(C(=O)COc2ccccc2)CC12CCOCC2`, the “% Inhibition” value is reported as -3% and the Z score is reported as 0.33. With `C[C@@H](Cn1ccnc1)NCc1cc(F)cc(F)c1` the “% Inhibition” value was -9% and the Z score was 1.3. For `Cc1cccnc1C[C@H](C)N(C)Cc1ccc(CO)o1`, the “% Inhibition” value was -6% and the Z score was 0.97. With `Cc1ccccc1-n1c(O)c(Cc2ccc(Cl)cc2Cl)c(=O)[nH]c1=O` the “% Inhibition” value was -6% and the Z score was 0.83. In the case of `Cc1nnc(NC(=O)Oc2ccccc2)s1`, the “% Inhibition” value is reported as -7% and the Z score is reported as 0.98. In the case of `COC(=O)COc1ccc(C#N)c(Cl)c1`, the “% Inhibition” value is reported as 42% and the Z score is reported as -4.27. For `CC[C@@H](C(=O)N(Cc1ccccn1)C(C)(C)C)N1CCCC1=O`, the “% Inhibition” value was -9% and the Z score was 1.54. `NC1(c2nc(=O)c3c([nH]2)CCC3)CCCCC1` was tested, and the “% Inhibition” value was 7% and the Z score was -1. For `O=C1NC2(CCN(Cc3ccccn3)CC2)N2CC3CCCC3C12` (centres undefined), the “% Inhibition” value was 17% and the Z score was -2.2. In the case of `CN(C)C(=O)Oc1ccn2cc[n+](C)c2c1`, the “% Inhibition” value is reported as -5% and the Z score is reported as 0.73. In the case of `COc1cccc(NC(=O)N2C3CCC2CC3)n1`, the “% Inhibition” value is reported as -1% and the Z score is reported as 0.18. For `Cc1c(C)[n+]([O-])c([C@@H](c2cccc(OC(F)F)c2)C2C(=O)N(C)C(=O)N(C)C2=O)n1Cc1ccccc1`, the “% Inhibition” value was 14% and the Z score was -1.74. `CC(=O)Nc1cccc(-c2ccc3c(c2)CNCC3)c1` was tested, and the “% Inhibition” value was -17% and the Z score was 3.42. With `Cc1ccn(CC(=O)N2C3CCC2CN(C)C3)c(=O)c1` the “% Inhibition” value was 18% and the Z score was -2.26. In the case of `COc1ccccc1CCN(C)Cc1c(C)noc1C`, the “% Inhibition” value is reported as -16% and the Z score is reported as 2.3. `COc1cc2c(cc1OC)[C@H](c1cccnc1)N(C)CC2` was tested, and the “% Inhibition” value was 5% and the Z score was -0.78. In the case of `CCc1nccn1C[C@H](C)NCc1cscn1`, the “% Inhibition” value is reported as -4% and the Z score is reported as 0.61. For `COc1nn(C)cc1NC1CCN([C@@H](C)Cc2ccccc2)CC1`, the “% Inhibition” value was -9% and the Z score was 1.67. `O=C(Oc1ccccc1)N1CCCN(c2cc(C3CC3)ncn2)CC1` was tested, and the “% Inhibition” value was 3% and the Z score was -0.35. For `C[C@]12CCC3C(CC[C@H]4CC(O)CC[C@]34C)C1CC[C@]2(O)C#N` (some centres undefined), the “% Inhibition” value was -5% and the Z score was 0.85. With `CC1CCCCN1CC1CCCN(c2cnccc2C#N)C1` (centres undefined) the “% Inhibition” value was -6% and the Z score was 0.8. For `COCCN1CC[C@H](C(=O)N2CCC(C(C)=O)(c3ccccc3)CC2)C1`, the “% Inhibition” value was -15% and the Z score was 2.57. For `CN1C[C@H](CNC(=O)c2ccccn2)C2(CCCCC2)C1`, the “% Inhibition” value was -7% and the Z score was 1.35. `O=C(c1ccncc1F)N1C[C@H]2CC[C@@H](C1)N(CC1CC1)C2` was tested, and the “% Inhibition” value was 2% and the Z score was -0.29. `O=c1[nH]c2cc(OCC[C@H]3CCCO3)ccc2o1` was tested, and the “% Inhibition” value was -8% and the Z score was 0.99. `CN1CCN([C@H]2COC[C@@H]2NC(=O)c2ccc(F)cc2)CC1` was tested, and the “% Inhibition” value was -13% and the Z score was 2. For `O=C(NC1CCCCC1)Oc1cc2oc(=O)sc2cc1Cl`, the “% Inhibition” value was -15% and the Z score was 2.41. `CCc1ccc(-c2cn(CCc3c[nH]cn3)nn2)nc1` was tested, and the “% Inhibition” value was -20% and the Z score was 1.98. With `CCc1cccc(CN2C3CCC2C(C(=O)O)C3)c1` (centres undefined) the “% Inhibition” value was -6% and the Z score was 0.47. `Cc1cc(CN2C[C@H](c3cnn(C)c3)C3(CCOCC3)C2)no1` was tested, and the “% Inhibition” value was -15% and the Z score was 1.68. For `Cc1cc(CN2CC3(CCCC3)OC[C@@H]2CN(C)C)on1`, the “% Inhibition” value was -12% and the Z score was 1.83. `Cc1nc2ccccc2n1CCN[C@@H](C)Cc1ccccn1` was tested, and the “% Inhibition” value was 4% and the Z score was -0.84. With `COCCc1ncc(CN2[C@@H]3CC[C@H]2C[C@@H](c2ccc(OC)cc2)C3)cn1` the “% Inhibition” value was -5% and the Z score was 1.04. With `Cn1nc(OC(=O)Nc2ccccc2)cc1C(F)(F)F` the “% Inhibition” value was 38% and the Z score was -4.9. In the case of `Cc1ccc2c(c1)[C@@H]1CN(C)CC[C@H]1N2C(=O)C1CCCC1`, the “% Inhibition” value is reported as -10% and the Z score is reported as 1.83. `O=S(=O)(c1cc(F)cc(F)c1)N1CCC[C@H]1c1cccnc1` was tested, and the “% Inhibition” value was -5% and the Z score was 0.59. With `C[C@@H](C1CC1)N1CCOC2(CCCCCC2)C1` the “% Inhibition” value was -7% and the Z score was 0.79. For `COCC(C)(C)CNC(=O)C1C(C)(C)C1(C)C`, the “% Inhibition” value was -13% and the Z score was 1.48. With `N#Cc1ccnc(CN2CC[C@@H]3CCCC[C@H]3C2)c1` the “% Inhibition” value was -5% and the Z score was 0.87. `Cc1ccc(OCC(=O)N2C[C@H](N(C)C)C[C@H]2CO)cc1` was tested, and the “% Inhibition” value was -12% and the Z score was 1.35. In the case of `COCCCNC(=O)c1c(Cc2ccccc2C)n(Cc2ccccn2)c(C)cc1=O`, the “% Inhibition” value is reported as -5% and the Z score is reported as 0.65. `CCCCNC(=O)O[C@@H](C)CNC(=O)Oc1cccc(C)c1` was tested, and the “% Inhibition” value was -13% and the Z score was 1.66. For `O=C(c1cccnn1)N1C[C@H](c2cccc(F)c2F)[C@@H]2[C@H]1C1CCN2CC1`, the “% Inhibition” value was -5% and the Z score was 0.71. For `CCc1nc(CN(CCc2cccc(F)c2)C2CC2)no1`, the “% Inhibition” value was -9% and the Z score was 0.87. For `c1ccc(CCNC[C@H]2CCCO2)cc1`, the “% Inhibition” value was -14% and the Z score was 1.57. With `CN1C[C@@]2(Cc3c1ccc1ccccc31)C(=O)NC(=O)N(CCc1ccccc1)C2=O` the “% Inhibition” value was 8% and the Z score was -0.95. In the case of `CC(C)c1csc(C2CCNCC2)n1`, the “% Inhibition” value is reported as -9% and the Z score is reported as 0.84. `CN1C[C@@H]2CN(c3nccc(Oc4ccccc4)n3)C[C@@H]2C1` was tested, and the “% Inhibition” value was 12% and the Z score was -1.44. `Fc1cc(F)cc([C@H]2CN(Cc3ccncc3)[C@@H]3C4CCN(CC4)[C@H]23)c1` was tested, and the “% Inhibition” value was -5% and the Z score was 0.88. `Cc1cc(C(=O)N2CCC(N(C(=O)C(F)(F)F)c3cccnc3)CC2)ncn1` was tested, and the “% Inhibition” value was -8% and the Z score was 1.01. `Clc1ccc2nccc(-c3cccc4c3CCNC4)c2c1` was tested, and the “% Inhibition” value was -7% and the Z score was 1.27. In the case of `COc1ccccc1Cn1cc(C(=O)NCCOC(C)C)c(=O)c(C(=O)NCCC2=CCCCC2)c1`, the “% Inhibition” value is reported as -14% and the Z score is reported as 2.05. With `CN1C[C@H]2CC[C@@H](C1)N(Cc1cc(-c3ccccc3)no1)C2` the “% Inhibition” value was -2% and the Z score was 0.42. With `O=C(c1onc2c1CCCC2)N1C[C@@H](c2ccccc2)[C@@H]2[C@H]1C1CCN2CC1` the “% Inhibition” value was 2% and the Z score was -0.23. `OC12C[C@@H](C3CO[C@@H]1O3)n1ncnc1N2` was tested, and the “% Inhibition” value was -12% and the Z score was 1.89. For `Cc1cc(C)c(C)c(S(=O)(=O)N(C(=O)Oc2ccccc2)c2ccc3oc(=O)sc3c2)c1C`, the “% Inhibition” value was -36% and the Z score was 4.81. With `CN1CCC[C@@]2(CCN(c3ncc(F)c(-c4ccsc4)n3)C2)C1` the “% Inhibition” value was 4% and the Z score was -0.74. In the case of `Cc1c[nH]c(CN(C)CCc2ccccc2C)n1`, the “% Inhibition” value is reported as -4% and the Z score is reported as 0.46. In the case of `O=C1NC(=O)C2(Cc3cc(C(F)(F)F)ccc3N3CCOCC32)C(=O)N1c1ccccc1` (centres undefined), the “% Inhibition” value is reported as -41% and the Z score is reported as 4.79. In the case of `O=S(=O)(N1CCCC1)N1C[C@@H]2CC[C@H]1CN(Cc1ccccn1)C2`, the “% Inhibition” value is reported as 5% and the Z score is reported as -0.75. `c1cc(CN2CCC3(CC2)CCN(Cc2ccon2)C3)no1` was tested, and the “% Inhibition” value was 4% and the Z score was -0.69. For `CCn1cc(-c2ccc(C)cc2)cc1C(=O)N1CCC2(CC1)OCCO2`, the “% Inhibition” value was 4% and the Z score was -0.7.
